# Laboratory results: the supplement of paper PMC8728848
# Some of the results follow.
# B1: Pbx2 (Cryptococcus neoformans) (protein)
# chain: AVSPLPSSTELVFYSQKRRRRRICSTATGSLSTPDPTRMTSDPYKRVGMRFSSVPRLLITFLSLLLLVSAAPPCVRFADYDSINQMFIDGGPGTKVLLCPNRLYRLSGPIIFTAADQEIATYGYPTGSERAVLRVEGRNTATAIQGDCRRCARVSVKNLVVDGNRKKLGRMRDFQLATGLVVLGGNEGQSIQNSWIKNPRGFTAIHIREGDKLQCSGARVEKNEIGPVGEEYDPEKDGDDPEMSPLGRPLADGVSIACRDSFIRDNTFRDNTDAAIVVYCSPGTLIHANHIFAQSLSAMAGILMVDSTPFNGDYTGTVVRSNIIDAVSRTIRVGIGIGPTVWSDDTETILTGGSVIGNGLKGRYMGYGIAAAGLKQWTIKDNWDEAKHEGRKSARCFDEPVNPDPIGLLYNRPTMEDCTVQSGFADHDFQYLVCIDGLYDKTNPPKHDPAPLAHDPSPTNAQEDNTVQQDGGDSKSKSIEQPREASDIEAEPSVEKMFSTGSEMMDDVLEHSHQRMHEVIDHLSRRIDILGAASAGKGSGDSKISEVLDPAMSSHLEKLQRKIEHLEFSLRSQIETAIQLRSAIQGWDQEMALVTDWEYDILLDVRHKLELSSYPHDQPLDPRLMRGQSYLNNEAVLVDDHSHPSLEGENLRAMSDRARLNANEEA
# What was measured:
# Test in all cases: glycan array binding signal (z-score within array); higher = stronger binding
# Conditions in all cases: glycan notation: IUPAC condensed, linker removed
# [1] = biological target: Neu5Ac(a2-8)Neu5Ac
# Method in brief: (§1)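 From the Consortium for Functional Glycomics database, 3228 arrays were curated, keeping only those whose protein sequence was available. Binding is given as a within-array Z-score averaged across arrays sharing a protein sequence and across linkers. Negative Z-scores can be read as non-binding.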
# [2] = biological target: Neu5Ac(a2-8)Neu5Ac(a2-3)Gal(b1-3)GalNAc(b1-4)[Neu5Ac(a2-3)]Gal(b1-4)Glc
# Method in brief: as §1
# [3] = biological target: Neu5Ac(a2-8)Neu5Ac(a2-3)Gal(b1-3)GalNAc(b1-4)[Neu5Ac(a2-8)Neu5Ac(a2-3)]Gal(b1-4)Glc
# Method in brief: as §1
# [4] = biological target: Neu5Ac(a2-8)Neu5Ac(a2-3)Gal(b1-4)Glc
# Method in brief: as §1
# [5] = biological target: Neu5Ac(a2-8)Neu5Ac(a2-3)Gal(b1-4)GlcNAc
# Method in brief: as §1
# [6] = biological target: Neu5Ac(a2-8)Neu5Ac(a2-3)[Gal(b1-3)GalNAc(b1-4)]Gal(b1-4)Glc
# Method in brief: as §1
# [7] = biological target: Neu5Ac(a2-8)Neu5Ac(a2-3)[GalNAc(b1-4)]Gal(b1-4)Glc
# Method in brief: as §1
# [8] = biological target: Neu5Ac(a2-8)Neu5Ac(a2-8)Neu5Ac
# Method in brief: as §1
# [9] = biological target: Neu5Ac(a2-8)Neu5Ac(a2-8)Neu5Ac(a2-3)Gal(b1-4)Glc
# Method in brief: as §1
# [10] = biological target: Neu5Ac(a2-8)Neu5Ac(a2-8)Neu5Ac(a2-3)[Gal(b1-3)GalNAc(b1-4)]Gal(b1-4)Glc
# Method in brief: as §1
# [11] = biological target: Neu5Ac(a2-8)Neu5Ac(a2-8)Neu5Ac(a2-3)[GalNAc(b1-4)]Gal(b1-4)Glc
# Method in brief: as §1
# [12] = biological target: Neu5Ac(a2-8)Neu5Ac(a2-8)Neu5Ac(a2-8)Neu5Ac(a2-3)[GalNAc(b1-4)]Gal(b1-4)Glc
# Method in brief: as §1
# [13] = biological target: Neu5Ac(a2-8)Neu5Gc(a2-3)Gal(b1-4)GlcNAc
# Method in brief: as §1
# [14] = biological target: Neu5Ac(b2-6)Gal(b1-4)GlcNAc
# Method in brief: as §1
# [15] = biological target: Neu5Ac(b2-6)GalNAc
# Method in brief: as §1
# [16] = biological target: Neu5Ac9Ac(a2-3)Gal(b1-4)GlcNAc
# Method in brief: as §1
# [17] = biological target: Neu5Ac9Ac(a2-6)Gal(b1-4)GlcNAc
# Method in brief: as §1
# [18] = biological target: Neu5Gc(a2-3)Gal(b1-3)GlcNAc
# Method in brief: as §1
# [19] = biological target: Neu5Gc(a2-3)Gal(b1-3)[Fuc(a1-4)]GlcNAc
# Method in brief: as §1
# [20] = biological target: Neu5Gc(a2-3)Gal(b1-4)Glc
# Method in brief: as §1
# [21] = biological target: Neu5Gc(a2-3)Gal(b1-4)GlcNAc
# Method in brief: as §1
# [22] = biological target: Neu5Gc(a2-3)Gal(b1-4)GlcNAc(b1-3)Gal(b1-4)GlcNAc(b1-2)Man(a1-3)[Neu5Gc(a2-3)Gal(b1-4)GlcNAc(b1-3)Gal(b1-4)GlcNAc(b1-2)Man(a1-6)]Man(b1-4)GlcNAc(b1-4)GlcNAc
# Method in brief: as §1
# [23] = biological target: Neu5Gc(a2-3)Gal(b1-4)[Fuc(a1-3)]GlcNAc
# Method in brief: as §1
# [24] = biological target: Neu5Gc(a2-6)Gal(b1-4)GlcNAc
# Method in brief: as §1
# [25] = biological target: Neu5Gc(a2-6)GalNAc
# Method in brief: as §1
# [26] = biological target: Neu5Gc(a2-8)Neu5Ac(a2-3)Gal(b1-4)GlcNAc
# Method in brief: as §1
# [27] = biological target: Neu5Gc(a2-8)Neu5Gc(a2-3)Gal(b1-4)GlcNAc
# Method in brief: as §1
# [28] = biological target: Neu5Gc(a2-8)Neu5Gc(a2-3)Gal(b1-4)GlcNAc(b1-3)Gal(b1-4)GlcNAc
# Method in brief: as §1
# [29] = biological target: Neu5Gc(a2-8)Neu5Gc(a2-6)Gal(b1-4)GlcNAc
# Method in brief: as §1
# [30] = biological target: Neu5Gc(b2-6)Gal(b1-4)GlcNAc
# Method in brief: as §1
binder,measurement,setting,value
B1,glycan array binding signal (z-score),[1],-0.332
same,glycan array binding signal (z-score),[2],-0.583
same,glycan array binding signal (z-score),[3],0.024
same,glycan array binding signal (z-score),[4],-0.602
same,glycan array binding signal (z-score),[5],-0.348
same,glycan array binding signal (z-score),[6],0.256
same,glycan array binding signal (z-score),[7],-0.131
same,glycan array binding signal (z-score),[8],-0.256
same,glycan array binding signal (z-score),[9],-0.428
same,glycan array binding signal (z-score),[10],-0.715
same,glycan array binding signal (z-score),[11],0.212
same,glycan array binding signal (z-score),[12],-0.399
same,glycan array binding signal (z-score),[13],-0.248
same,glycan array binding signal (z-score),[14],-0.406
same,glycan array binding signal (z-score),[15],-0.522
same,glycan array binding signal (z-score),[16],0.189
same,glycan array binding signal (z-score),[17],-0.631
same,glycan array binding signal (z-score),[18],-0.243
same,glycan array binding signal (z-score),[19],-0.266
same,glycan array binding signal (z-score),[20],-0.241
same,glycan array binding signal (z-score),[21],-0.329
same,glycan array binding signal (z-score),[22],-0.362
same,glycan array binding signal (z-score),[23],-0.117
same,glycan array binding signal (z-score),[24],-0.317
same,glycan array binding signal (z-score),[25],-0.472
same,glycan array binding signal (z-score),[26],0.079
same,glycan array binding signal (z-score),[27],-0.028
same,glycan array binding signal (z-score),[28],-0.158
same,glycan array binding signal (z-score),[29],-0.088
same,glycan array binding signal (z-score),[30],-0.43
